One assay has as its system HSkMC. The assay is described as follows: cytotoxicity call (relative viability < 0.9). The conditions noted are these: 10 µM.
The test system of a further assay is HepG2. The experiment in a line: cytotoxicity call (relative viability < 0.9). The conditions noted are these: 10 µM.
In a further assay the test system is S. aureus RN4220. The assay is described as follows: growth inhibition call (relative growth <= 0.2). The conditions noted are these: 50 µM.

Molecules are shown by their SMILES. The list shows a part of the results.

The text below walks through data of the antibiotic and cytotoxicity screens of Wong et al. (2023).

Consider `Nc1ccc(S(N)(=O)=O)cn1`, for which the cytotoxicity call with HSkMC and with HepG2 was “inactive” in each case. Besides, the growth inhibition call with S. aureus RN4220 was “inactive”.

Take `C[C@@H]1CCCCO[C@@H](CN(C)C(=O)Nc2ccc(F)cc2)[C@H](C)CN([C@@H](C)CO)C(=O)c2cc(NS(=O)(=O)c3ccc(Cl)cc3)ccc2O1`: the cytotoxicity call in the assay on HSkMC and in the assay on HepG2 was “inactive” each time. For the same compound, the growth inhibition call in the assay with S. aureus RN4220 was “inactive”.

`Cc1noc(C)c1S(=O)(=O)N(C)C[C@H]1Oc2ccc(NC(=O)Cc3ccccc3)cc2CC(=O)N([C@@H](C)CO)C[C@H]1C`: the cytotoxicity call in the assay with HSkMC and in the assay with HepG2 was “inactive” in each case. In the assay on S. aureus RN4220, the growth inhibition call is “inactive”.

For the compound `C[C@H]1CN([C@@H](C)CO)S(=O)(=O)c2ccc(C#Cc3ccc(F)cc3)cc2O[C@@H]1CN(C)C(=O)CN(C)C`, the cytotoxicity call in the assay with HSkMC and in the assay with HepG2 was “inactive” each time. Further, the growth inhibition call with S. aureus RN4220 was “inactive”.

On to `Cc1cccc(CN(C)C[C@@H]2Oc3ncc(-c4cccc(C(F)(F)F)c4)cc3C(=O)N([C@H](C)CO)C[C@@H]2C)c1`, for which the cytotoxicity call in the assay on HSkMC and with HepG2 was “inactive” each time. For the same compound, the growth inhibition call in the assay on S. aureus RN4220 is “inactive”.

For `C[C@H](CO)N1C[C@H](C)[C@H](CN(C)S(=O)(=O)c2cn(C)cn2)Oc2ccc(NC(=O)NC3CCCCC3)cc2CC1=O`, the cytotoxicity call in the assay with HSkMC and in the assay with HepG2 was “inactive” in each case. In the assay with S. aureus RN4220, the growth inhibition call is “inactive”.

Turning to `C[C@H](CO)N1C[C@H](C)[C@H](CN(C)CC2CCCCC2)Oc2c(NC(=O)c3nc4ccccc4s3)cccc2C1=O`, the cytotoxicity call in the assay on HSkMC and in the assay on HepG2 was “inactive” throughout. Moreover, the growth inhibition call with S. aureus RN4220 was “inactive”.

For the compound `C[C@@H]1CCCCO[C@H](CN(C)C)[C@H](C)CN([C@H](C)CO)C(=O)c2cc(NS(=O)(=O)c3cn(C)cn3)ccc2O1`, the cytotoxicity call with HSkMC and with HepG2 was “inactive” throughout. In addition, in the assay on S. aureus RN4220, the growth inhibition call is “inactive”.

As to `CCNC(=O)C[C@H]1CC[C@H]2[C@@H](COC[C@@H](O)CN2C(=O)Nc2c(C)noc2C)O1`, the cytotoxicity call in the assay on HSkMC and in the assay on HepG2 was “inactive” in each case. Also, the growth inhibition call in the assay with S. aureus RN4220 was “inactive”.

In the case of `CO[C@@H]1CN(C)C(=O)c2ccc(NS(=O)(=O)c3ccccc3)cc2OC[C@H](C)N(C(=O)NC(C)C)C[C@H]1C`, the cytotoxicity call in the assay on HSkMC and in the assay with HepG2 was “inactive” each time. Also, in the assay on S. aureus RN4220, the growth inhibition call was “inactive”.

For the compound `Cc1ccc(S(=O)(=O)Nc2cccc3c2O[C@@H](CN(C)Cc2ccc(Oc4ccccc4)cc2)[C@@H](C)CN([C@@H](C)CO)C3=O)cc1`, the cytotoxicity call in the assay on HSkMC and in the assay on HepG2 was “inactive” each time. In the assay on S. aureus RN4220, the growth inhibition call is “inactive”.

As for `COc1ccc(S(=O)(=O)Nc2ccc3c(c2)C(=O)N([C@@H](C)CO)C[C@H](C)[C@@H](CN(C)Cc2ccc(C(=O)O)cc2)OCCCC[C@H](C)O3)cc1`, the cytotoxicity call with HSkMC and in the assay on HepG2 was “inactive” throughout. Moreover, the growth inhibition call in the assay on S. aureus RN4220 is “inactive”.

On to `C[C@H]1CN([C@@H](C)CO)C(=O)c2cccc(NC(=O)c3ccc(-c4nccs4)cc3)c2O[C@H]1CN(C)Cc1ccc(C(=O)O)cc1`, for which the cytotoxicity call in the assay on HSkMC and with HepG2 was “inactive” throughout. Besides, the growth inhibition call in the assay on S. aureus RN4220 is “inactive”.

For `C[C@@H]1CN([C@@H](C)CO)C(=O)c2cc(NS(C)(=O)=O)ccc2O[C@@H]1CN(C)S(=O)(=O)c1ccc(F)cc1`, the cytotoxicity call with HSkMC and in the assay with HepG2 was “inactive” each time. In the assay with S. aureus RN4220, the growth inhibition call was “inactive”.

With `O=C(C[C@@H]1C[C@@H]2c3cc(NC(=O)c4ccc5c(c4)OCO5)ccc3O[C@@H]2[C@@H](CO)O1)NCCN1CCCCC1`, the cytotoxicity call in the assay with HSkMC and with HepG2 was “inactive” each time. Further, in the assay on S. aureus RN4220, the growth inhibition call was “inactive”.

Consider `O[C@H]1CCCSc2ccccc21`, for which the cytotoxicity call in the assay on HSkMC and with HepG2 was “inactive” in each case. Also, in the assay on S. aureus RN4220, the growth inhibition call is “inactive”.

As for `COc1ccc(CN(C)C[C@H]2Oc3ccc(NC(=O)Cn4cnnn4)cc3C(=O)N([C@@H](C)CO)C[C@H]2C)cc1`, the cytotoxicity call with HSkMC and with HepG2 was “inactive” throughout. Also, the growth inhibition call in the assay with S. aureus RN4220 is “inactive”.

Regarding `C[C@H]1CN([C@@H](C)CO)C(=O)c2cccc(NS(=O)(=O)c3ccc(F)cc3)c2O[C@H]1CN(C)S(=O)(=O)c1cccs1`, the cytotoxicity call in the assay on HSkMC and in the assay on HepG2 was “inactive” each time. The growth inhibition call in the assay on S. aureus RN4220 was “inactive”.

Turning to `C[C@@H]1CCCCO[C@H](CN(C)Cc2ccncc2)[C@H](C)CN([C@H](C)CO)C(=O)c2cc(NC(=O)Nc3ccccc3)ccc2O1`, the cytotoxicity call in the assay with HSkMC and in the assay with HepG2 was “inactive” each time. Further, the growth inhibition call in the assay on S. aureus RN4220 is “inactive”.

Regarding `C[C@@H]1CCCCO[C@@H](CN(C)Cc2ccc(C(F)(F)F)cc2)[C@@H](C)CN([C@H](C)CO)C(=O)c2cc(NS(C)(=O)=O)ccc2O1`, the cytotoxicity call in the assay with HSkMC and in the assay on HepG2 was “inactive” throughout. Further, the growth inhibition call in the assay with S. aureus RN4220 was “inactive”.

Turning to `COc1ccccc1C#Cc1ccc2c(c1)O[C@@H](CN(C)Cc1cccnc1)[C@H](C)CN([C@@H](C)CO)S2(=O)=O`, the cytotoxicity call in the assay with HSkMC was “active”. Besides, the cytotoxicity call in the assay on HepG2 was “inactive”. The growth inhibition call with S. aureus RN4220 is “inactive”.

Take `C[C@H]1CN([C@@H](C)CO)S(=O)(=O)c2ccc(C#CC3CC3)cc2O[C@H]1CN(C)Cc1cccc(F)c1`: the cytotoxicity call in the assay on HSkMC and in the assay on HepG2 was “inactive” each time. Besides, in the assay on S. aureus RN4220, the growth inhibition call is “inactive”.

Regarding `O=C(C[C@@H]1C=C[C@H](NC(=O)Nc2cc(F)ccc2F)[C@H](CO)O1)NCCCN1CCOCC1`, the cytotoxicity call in the assay on HSkMC (human skeletal muscle cells) and in the assay with HepG2 was “inactive” each time. Further, in the assay with S. aureus RN4220, the growth inhibition call was “inactive”.

Consider `C[C@@H]1CN([C@H](C)CO)C(=O)Cc2cc(NC(=O)C3CCCCC3)ccc2O[C@H]1CN(C)Cc1ccc(Oc2ccccc2)cc1`, for which the cytotoxicity call in the assay with HSkMC and in the assay with HepG2 was “inactive” in each case. For the same compound, the growth inhibition call with S. aureus RN4220 is “inactive”.

On to `C[C@H]1CN([C@@H](C)CO)C(=O)c2cc(C#CCc3ccccc3)cnc2O[C@@H]1CN(C)CC1CCOCC1`, for which the cytotoxicity call with HSkMC and with HepG2 was “inactive” in each case. The growth inhibition call in the assay with S. aureus RN4220 was “inactive”.

With `C[C@H]1CCCCO[C@H](CN(C)C(=O)Nc2ccc3c(c2)OCO3)[C@@H](C)CN([C@@H](C)CO)C(=O)c2cc(NC(=O)Nc3cccc4ccccc34)ccc2O1`, the cytotoxicity call in the assay with HSkMC and in the assay with HepG2 was “inactive” throughout. In the assay with S. aureus RN4220, the growth inhibition call is “inactive”.

As for `Cc1noc(C)c1NC(=O)N(C)C[C@H]1Oc2ccc(NC(=O)Nc3cccc4ccccc34)cc2CC(=O)N([C@H](C)CO)C[C@H]1C`, the cytotoxicity call with HSkMC and in the assay on HepG2 was “inactive” throughout. Moreover, the growth inhibition call in the assay on S. aureus RN4220 is “inactive”.
